Data from the supplement of paper PMC9513381.
Recombinant human monoclonal antibodies (heavy:light variable regions). ELISA EC50 on the named antigen, from 10 µg/ml down; IC50 / IC90 against spike pseudovirus on 293T-ACE2 cells, 48 h; lower = stronger. Calls: IC50 above 1,000 ng/ml = non-neutralizing; EC50 above 1,000 ng/ml = non-binder. The source prints 1000 for neutralization that was not reached; it is given as >1000 ng/ml. Only binders of the Wuhan-Hu-1 domain have neutralization values.

B1: B2005 (protein)
chain 1: EVQLVESGGGLVQPGRSLRLSCAAGGFTFDDYAMHWVRQGPGKGLEWVSGIAWNSGTLGYAASVQGRFIISRDNAKKSVYLHMNSLRTEDTAFYFCVKDRTNGDPQGDAFDMWGQGTMVTVSS
chain 2: SYELTQPPSVSGAPGQTARITCGGNNIGSKSVHWYQQKPGQAPVLVVYDDNDRPSGIPERFSGSNSGNRATLTISRVEAEDEADYYCQVWDSSSEHVLFGGGTKLTVL
B2: B2134 (protein)
chain 1: QLVQSGPEVKKPGTSVKVSCKVPRHTFSSSAVHWVRQARGQRLEWIGWIVVGRGTTNYAQKFQERVTITRDMSASTVNMELSSLTSEDTAVYFCAAGDGDYGHYGMDVWGQGTTVTVSS
chain 2: QSVLTQPPSVSGAPGQRVTISCTGSNSNIGAGYDVHWYQQLPGTAPKLLIHGNSNRPSGVPDRFSGSKSGTSASLAITGLQPEDEADYYCQSYDSSLSGSVFGGGTQLTVL
B3: B1049 (protein)
chain 1: QVQLQESGPGLVKPSQTLSLTCTVSGGSISSGPYYWSWIRQHPGKGLEWIGYIYYSGSTYYNPSLKSRVTISVDTSKKQFSLNLNSVTAADTAVYYCARVWQYYDSTGSFDYWGQGTLVTVSS
chain 2: QSVLTQSPSASGTPGQRVTISCSGSSSNIGSNTVNWYQQVPGTAPKLLIYSDNQRPSGVPDRFSASKSGTSASLAISGLQSEDEADYYCAAWDDGLNGVLFGGGTKLTVL
B4: B2007 (protein)
chain 1: EVQLVESGGDLVQPGESLRLSCSDSGLTFRTHGFYWVRQAPGKRPEYISGISNNGDATYYADSVKGRFTVSRDNSKNTLFLQMNSLSVDDTAVYYCVKGRVDYWGQGTLVTVSS
chain 2: DIQMTQSPSSLSASVGDRVTITCQASQDISNSLNWYQQKPGRAPKLLIYDASHLQTGVPSRFSGSGSGTNFTFTISGLQPEDIATYYCQEYYDSITFGQGTRLEIK
B5: B1050 (protein)
chain 1: QVQLQQWGAGLLKPSETLSLTCGVFRASLIDFYWTWIRQSPGKGPEWIGGIYHNGSADSSPSMKSRVTISIDTSKNQFSLQLTSVTAADNGVYYCARGLGSWLQMPVAFWGQGNLVTVSS
chain 2: QVQLQQWGAGLLKPSETLSLTCGVFRASLIDFYWTWIRQSPGKGPEWIGGIYHNGSADSSPSMKSRVTISIDTSKNQFSLQLTSVTAADNGVYYCARGLGSWLQMPVAFWGQGNLVTVSS
B6: B2133 (protein)
chain 1: QVQLVQSGAEVQKPGSSVKVSCKTSGGTFGSYGISWVRQASGQGLEWMGGIIPVFGAVNYAQKFQGRVTITADKSTSTVYMELSSLRFEDTAVYYCGRAVGHEWELLSFGRDAYGMNVWGQGTTVTVSS
chain 2: EIVLTQSPATLSLSPGERATLSCRASQSVSRYLAWYQQKPGQAPRLLIYGASERATGIPARFSGSGSGTDFTLTISSLEPEDFAVYYCQQRSIRPSFGGGTKVEIK
B7: B2062 (protein)
chain 1: QVQLQESGPGLVKPSETLSVTCAVSGYSISSSYYWGWIRQSPGRGLEWIGSIYHSGTTYYNPSVKSRLTISVDTSTNQFSLTLRSVTAADTAMYYCASNSGQVVIGAFDIWGRGTMVTVSS
chain 2: DIQMTQSPSSLSASVGDRVTVTCRASQSIDSYLNWYQQKPGKAPKVLIYAASTLQSGVPSRFSGSGSGTEFTLTISSLQPEDFATYYCQQTYSTPSYTFGQGTKLEIK
B8: B2057 (protein)
chain 1: EVQLVESGGGLAKPGGSLRLSCAASGFSFSDAWMNWVRQGPGKGLEWVGRIKTKIDGGTIDYAASVKGRFTISRDDSKNTLYLQMSRLKTDDTAVYYCSTDEVSSGYDFPMDVWGQGTTVTVSS
chain 2: DIQMTQSPSTLSASVGDRVTITCRASQSVSVWLAWYQQKPGKAPNLLIYKASNLQSGVPSRFSGSGSGTEFTLTISSLQPDDFATYYCLQYNTLWTFGQGTKVEIK
B9: B2010 (protein)
chain 1: QLVQSGPEIKKPGTSVKVSCKASGFTFSNSAVQWVRQARGQHLEWIGWIVVGSGDPNYAQKFQERVTLTRDMSTGTAYMELSSLRSEDTAFYYCATNNCSRTICSDGFDIWGQGTMVTVSS
chain 2: DIQLTQSPSSLSASVGDRVTISCRASQTINNYLNWYQQKPGKAPKLLIYAASTLHRGVPSRFSGSGSGTDFTLTISSLQPEDFATYYCQQSYSSPPLTFGGGTKVEIK
B10: B2012 (protein)
chain 1: QLVQSGPEIKKPGTSVKVSCKASGFTFSNSAVQWVRQARGQHLEWIGWIVVGSGDPNYAQKFQERVTLTRDMSTGTAYMELSSLRSEDTAFYYCATNNCSRTICSDGFDIWGQGTMVTVSS
chain 2: IRMTQSPSSLSASVGDRVTITCQASQDINNYLNWYQQKPGRAPKLLIYDASNLETGVPSRFSGSGSGTEFTFTISSLQPEDIATYYCQQYDNLPITFGQGTRLEIK
B11: B2135 (protein)
chain 1: QVQLVESGGGVVQPGRSLRLSCAASGFTFSSYGMHWVRQAPGKGLEWVAVIWYDGSNKYYADSVKGRFTISRDNSKNTLYLQMNSLRAEDTAVYYCASNEGGRVAGRGMNYYYYGMDVWGQGTTVTVSS
chain 2: SYELTQPPSVSVAPGQTARITCGGNNIGSKNVHWYQQKPGQAPVLVVHDDSDRPSGIPERFSGSNSGNTATLTISRVEAGDEAEYYCQVWGSSSDHPYVFGTGTKVTVL
B12: B2045 (protein)
chain 1: EVQLVESGGGLIRPGGSLRLSCAASGFSVSNNYMSWVRQAPGKGLEWVSVIYSGGTTYYADSVKGRFNISRDNSKNTVYLQMNSLRAEDTAVYYCAREGDVEGYYDFWSGYSRDRYYFDYWGQGALVTVSS
chain 2: DIQLTQSPSSLSASVGDRVTITCRASQSVGRHLSWYQQKSGKAPKLLIYDASTLQSGVPSRFSGSGSGTDFSLTISNLRPEDFATYYCQQSYETPPWTFGQGTKVEIK
B13: B2115 (protein)
chain 1: QVQLVQSGTEVKKPGASVKVSCKVSGYTLTELSIHWVRQAPGKGLEWMGGFDPEDGETIFAQKFQGRVTMTEDTSTDTAYMDLSSLRSEDTAIYYCATNLRGHLLEPAAKGNSRAEYFQHWGQGTLVTVSS
chain 2: EIVLTQSPGTLSLSPGERAALSCRASQSVTRSYLAWYQQKPGQAPRLLIFDASSRATGIPDRFSGSASGTDFTLTISRLEPEDFAVYYCQLYGTSSTFGQGTKVEIK
B14: B2114 (protein)
chain 1: EVQLVESGGGLVQPGGSLRLSCAASGFIVSDSYMTWVRQAPGKGLEWVSLIHSGGSTYYADSVKGRFTITRHYSTNNLYLQMNSLRVEDTAVYYCARDTAASSGYYYNALDVWGQGTTVTVSS
chain 2: DIQMTQSPSTLSASVGDRVTITCRASQSISSWLAWYQQKPGKAPKLLISEASILEGGVPSRFRGSGSGTEFTLTINSLQPDDFAIYYCQQYRSYSYTFGQGTKLEIK
B15: B2099 (protein)
chain 1: EVQLVESGGDLVHPGESLTLSCAASGFTFSSYSMNWVRQAPGKGLEWVSYVSSSATTIYYAESVKGRFTISRDNAKNSLYLQMNSLRDEDMAVYYCARDRTPFYDAWNGWGPLDYWGQGTWVTVSS
chain 2: DIQMTQSPSTLSASVGDRVTITCRASQSISSWLAWYQQKPGKAPKLLISDASNLESGVPSRFSGSGSGTEFTLSISSLQPDDFATYYCQQYNSYRYTFGQGTKLEIK
B16: B2100 (protein)
chain 1: QVQLVESGGGLVQPSQSLSITCTVSGFSLTTYGVHWVRQSPGKGLEWLGVKWSGGSTDYNAAFISRLSITKDNSKSQVFFKINSLQADDTAIYYCARGDYDPYYYAMDYWGQGTSVTVSS
chain 2: QSVLTQPPSVSGAPGQRVTISCTGSSSNIGAGSDVHWYQQFPGTAPKLLIYGSTHRPSGVPDRFSGSKSGTSASLAITGLQAEDEADYYCQSYDSSLSAPYVFGTGTKVTVL

Each binder was assayed against SARS-CoV-2 Wuhan-Hu-1 spike pseudovirus (assay: pseudovirus neutralization IC50; higher = weaker neutralization).
Description: (§1)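 Single-round luciferase reporter pseudovirus mixed with antibody dilutions and put on 293T-ACE2 cells for 48 h; signal relative to no-antibody wells, four-parameter fit.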

Binder | pseudovirus neutralization IC50 [µg/mL]
B1 | 0.0135
B8 | 0.0227

These binders were tested against SARS-CoV-2 Wuhan-Hu-1 spike pseudovirus (assay: pseudovirus neutralization IC90; higher = weaker neutralization).
Description: as §1

Binder | pseudovirus neutralization IC90 [µg/mL]
B1 | 0.23
B8 | 0.476

These binders were tested against SARS-CoV-2 Delta (B.1.617.2) spike RBD (assay: ELISA binding EC50; higher = weaker binding; ELISA of recombinant human antibody on coated antigen, from 10 µg/ml in fourfold dilutions; four-parameter fit.).

Binder | ELISA binding EC50 [µg/mL]
B1 | > 1
B2 | > 1
B3 | > 1
B4 | > 1
B5 | > 1
B6 | > 1
B7 | > 1
B8 | 0.00667
B9 | > 1
B10 | > 1
B11 | > 1
B12 | > 1
B13 | > 1
B14 | > 1
B15 | > 1
B16 | > 1

What follows are binders tested against SARS-CoV-2 Omicron BA.1 spike protein in the same assay as above.

Binder | ELISA binding EC50 [µg/mL]
B1 | 0.0329
B2 | > 1
B3 | > 1
B4 | > 1
B5 | > 1
B6 | > 1
B7 | > 1
B8 | 0.00732
B9 | > 1
B10 | > 1
B11 | > 1
B12 | > 1
B13 | > 1
B14 | > 1
B15 | > 1
B16 | > 1

Each binder was assayed against SARS-CoV-2 Wuhan-Hu-1 spike receptor-binding domain in the same assay as above.

Binder | ELISA binding EC50 [µg/mL]
B1 | 0.00303
B2 | > 1
B3 | > 1
B4 | > 1
B5 | > 1
B6 | > 1
B7 | > 1
B8 | 0.00199
B9 | > 1
B10 | > 1
B11 | > 1
B12 | > 1
B13 | > 1
B14 | > 1
B15 | > 1
B16 | > 1
